This list was built around the results that the source calls inconclusive (neither active nor inactive); the mix of calls is not that of the screen. Potencies beside an inconclusive call are fits to weak or partial responses and may not hold up. The source made the active and inactive calls. Calls follow the shape of the dose curve; as a rule, active = well fitted inhibition curve with a large enough effect; inconclusive = small, poorly fitted or top-dose-only effect; inactive = no such curve, though single readings can be large or run the other way.
System: pyruvate kinase (Trypanosoma brucei)
Experiment: qHTS of Trypanosoma Brucei Inhibitors: Confirmatory Assay for Cherry-picked Compounds; also: nearly all actives have a fitted effect of over 70% in size
Details: recombinant TbPYK, Kinase-Glo ATP luminescence; activity change, negative = inhibition: at 76.9 µM (top of the series)
Procedure, shortened: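 Luminescence from Kinase-Glo Plus reports ATP generated by T. brucei pyruvate kinase after 45 min at room temperature with 130 uM ADP. Compounds were tested at several concentrations and curves fitted to normalized data.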
% is scaled to controls: 0 for no effect and ±100 for the full control effect; potency is read from the fitted curve at half-maximal effect; tags tell the direction and shape of the fitted curve.

Compound	activity change, negative = inhibition	Potency
COc1ccc(Cc2nnc(NS(=O)(=O)Cc3ccccc3)s2)cc1	inactive: -17.7%	–
Cc1ccc(-c2nc3ccccc3n2C)o1	–	inconclusive: 25.1 µM [inhibitor, partial curve]
CCOC(=O)C1=C(C)N=c2s/c(=C/c3cccc([N+](=O)[O-])c3O)c(=O)n2C1c1ccc(OC)cc1OC (stereo unspecified)	–	inconclusive: 31.6 µM [inhibitor, partial curve]
O=C(O)/C=C/C(=O)c1ccc2c(c1)CCc1ccccc1-2	–	active: 12.6 µM
Oc1ccc(N2CCN(c3nc(-c4cccs4)nc4ccccc34)CC2)cc1	–	inconclusive: 28.2 µM [inhibitor, partial curve]
Cc1ccc(S(=O)(=O)N(C(=O)c2ccco2)c2cc3sc(=O)oc3c3ccccc23)cc1	inactive: -29%	–
CCn1c(C(=O)NCc2cccnc2)cc2sc(Cl)cc21	–	inconclusive: 28.2 µM [inhibitor, partial curve]
Cc1ccc(NC(=O)c2sccc2C)nc1	–	inconclusive: 39.8 µM [inhibitor, single point]
CCOC(=O)c1ccc(NC(=O)CN2C(=O)CSC2=O)cc1	inactive: 0.513%	–
C=CCN1C(=O)/C(=c2\sc3nc(=O)c(Cc4ccc(OC)c(OC)c4)nn3c2=O)c2ccccc21	–	inconclusive: 31.6 µM [inhibitor, single point]
Cc1cccc(NC(=O)CN2C(=O)N/C(=C/c3ccc(C)o3)C2=O)c1	–	inconclusive: 17.8 µM [inhibitor, partial curve]
CCCc1cc(=O)oc2cc(C)cc(OC(=O)c3ccco3)c12	inactive: 5.68%	–
O=S(=O)(c1cc(O)ccc1O)c1cccc2c(S(=O)(=O)c3cc(O)ccc3O)cccc12	–	inconclusive: 28.2 µM [inhibitor, partial curve]
Cc1ccc(/C=C/C(=O)NC2CCCCCCC2)o1	–	inconclusive: 2.24 µM [inhibitor, full curve]
Cc1cc(N2CCOCC2)ccc1/C=C1/SC(=O)NC1=O	–	inconclusive: 22.4 µM [inhibitor, partial curve]
O=C(CSc1ccc(-c2nc3ccccc3[nH]2)cn1)N1CCN(C(=O)c2ccco2)CC1	–	inconclusive: 44.7 µM [inhibitor, single point]
CCOC(=O)c1cnc2ccc(OCC)cc2c1NCc1cccnc1	inactive: -3.19%	–
NC(=O)CSc1nnc(-c2cccc(S(=O)(=O)N3CCOCC3)c2)n1C1CCCCCC1	inactive: -12.8%	–

Compound	activity change, negative = inhibition	Potency
COCCN=C1NN=C(c2ccc(C)c([N+](=O)[O-])c2)CS1	–	inconclusive: 25.1 µM [inhibitor, partial curve]
C=CCN1CCN(C(c2ccccc2)c2nnnn2CCC(C)C)CC1 (stereo unspecified)	inactive: 3.52%	–
Fc1ccc(N=c2ssnc2Cl)c(F)c1	–	active: 28.2 µM
O=C(N/N=C/c1ccc(N2CCOCC2)o1)c1cccc([N+](=O)[O-])c1	–	inconclusive: 31.6 µM [inhibitor, single point]
Cc1c([N+](=O)[O-])cc(N2C(=O)C=CC2=O)cc1[N+](=O)[O-]	–	active: 3.98 µM
C=C(C)CSC1=C(C#N)C(c2ccccc2Cl)CC(=O)N1 (stereo unspecified)	–	active: 5.01 µM
CCCCOc1ccc(/C=C/C(=O)OCC(=O)NC(=O)NCC(C)C)cc1OCC	inactive: 3.58%	–
Cc1noc(NS(=O)(=O)c2ccc(NC(=O)CSc3nc4c(cc3C#N)CCC4)cc2)c1C	–	inconclusive: 31.6 µM [inhibitor, partial curve]
CC(OC(=O)C1=Cc2ccccc2OC1)C(=O)NCC1CCCO1 (stereo unspecified)	inactive: -6.82%	–
CC(C)C1Nc2ccc(C(=O)O)cc2C2C=CCC21 (stereo unspecified)	–	inconclusive: 7.94 µM [inhibitor, partial curve]
CCOC(=O)N1CCN(S(=O)(=O)c2ccc(C(=O)NNc3nc4c(C)cccc4s3)cc2)CC1	inconclusive: -30.1% [inhibitor]	–
Cc1nc(-c2ccc(C(=O)N3CCCC3)cc2)cs1	–	inconclusive: 31.6 µM [inhibitor, partial curve, poor fit]
CCN(CC)c1ccc(NC(=O)Cn2cc3c(n2)CCC(C)C3)c(C)c1 (stereo unspecified)	–	active: 22.4 µM
CCCCC(=O)N(Cc1ccc2c(c1)OCO2)Cc1nc2ccccc2c(=O)[nH]1	inactive: 7.39%	–
CC(Oc1ccccc1Cl)C(=O)Nc1ccc(S(=O)(=O)N2CCN(C)CC2)cc1 (stereo unspecified)	–	inconclusive: 20 µM [inhibitor, partial curve]
Cc1nc(SCC(=O)c2cccc([N+](=O)[O-])c2)n[nH]1	–	inconclusive: 28.2 µM [inhibitor, single point]
COc1ccccc1N(C(C)=O)C1=C(Cl)C(=O)c2ccccc2C1=O	inactive: -100%	–
O=c1[nH]c2sc3c(c2c2nncn12)CCCC3	–	inconclusive: 28.2 µM [inhibitor, partial curve]
